Laboratory results published in the RNAGym collection of RNA variant scans (doi:10.7554/elife.90254).
Read counts are not given, so values of variants with three or more changes are uncertain.

B1: LINE1-full (parent)
chain: UACGUAGGUGGUUUUCCCCUGAUAGUGCUAAGGGGGCCUGGAAGUUUGGACUGGGCAGAGCUCAACACAGCGUGGCAAAGUGGCUGUGGCUAGACUGCCUCUCUGGAUUCCUCGUCACUCAGCAGGGCAUCUCUGAGAGAAAUGCC

Variants of: B1
Experiment: self-cleavage, relative activity (ratio to wild type); higher = more cleavage; in vitro, sequencing; the parent is a self-cleaving ribozyme

Row | Variant | self-cleavage
1 | G33U U81A U91A | 0.86
2 | G32U G35A A77U U85C U109C G127A A129G | 0.04
3 | A30G U46A U134C | 1.08
4 | A31U A77U A94G | 0.19
5 | A31G U39A U85A | 0.21
6 | A31G U73A U100C A136U | 1.34
7 | A31G A59G U143A | 0
8 | A31U C56U A77G A138U | 0.62
9 | G32U U81C A124G A142G | 0.26
10 | A31G A42G A141G | 1.23
11 | G32A U52C U81C A94G G125A | 0
12 | G32A U39C U45C A92U A138G | 0.74
13 | G32U G60A C123G | 0.06
14 | G34A A42G U130G A138G | 2.15
15 | G33A A94G U100C U130C C146U | 0
16 | A31U U100C U109A U115C | 2.12
17 | G32U U87C U115C U130A | 0.15
18 | A30G G53C G74A U109A U115A | 1.27
19 | G32A U73A U119A | 1.47
20 | A31C A79G G80U U96C | 0
21 | G33A G58A C63U | 0.16
22 | A30G U52A U73A U85A C101A | 0.21
23 | A31C G36A U100G C116A | 1.23
24 | A31U A77G U132C | 1.39

Row | Variant | self-cleavage
25 | A31G A77U U115A | 2.01
26 | A31U G33U U45C U73A U134A | 0.57
27 | A30G A50U U85C A124U | 0.24
28 | G32A U45C U47C U73C A77U U87C C116U U119C | 2.3
29 | G32A U81A A136G | 1.84
30 | A30G U46C U62C A64U A77G | 0
31 | A30U U45A U104C | 0.88
32 | G32U U104C U132C | 2.45
33 | A30G U39A U46A | 0.94
34 | G33A A117G A142G | 0.6
35 | A31U U73C G135A A138G | 0
36 | G32A A79U U102C | 1.82
37 | A30G G34U G41A U46G A124C | 1.84
38 | A30G A77G U81C | 1.62
39 | G33U U115G U130C A138U | 1.08
40 | A31G A78G U87C A141G | 0.14
41 | A30G C51A U102C A138G | 0.98
42 | A30U A31G A69G A77U U104A A142U | 0.17
43 | G32C U91C U96A | 0.27
44 | A30G U39C U96A | 0.24
45 | A31G A67G C111G A138G | 1.53
46 | G32A A43G A57G G75A A121G | 0.53
47 | A31U G33A U46C A69U U132C A140G | 0
48 | G34A A50G U115C U143C | 1.3

Row | Variant | self-cleavage
49 | A31G U62A A117U | 0.09
50 | G33A A138G A141G | 1.57
51 | A30U C76U U87A | 0.1
52 | A31U A64U U134C | 0.51
53 | A30U A65G U73A U96A | 0.05
54 | A31U G35A U73A U115A | 1.19
55 | A30U A42G U109C A142G | 0.97
56 | A31C A67G A140U | 0.37
57 | A30G U52A U73A U81A A94G | 0.97
58 | A31U A136G A141G | 1.24
59 | G32A U100C U119A A121G | 1.27
60 | A30C U96A A121G U132C | 0.22
61 | A31G C37A U109A | 1.31
62 | A30U A142G C145U | 0.72
63 | A31U A42U U62C A69U C71U A94G U96A | 0.1
64 | A31U G36A U46C U87C U100C U143A | 0.44
65 | A31U A79G A121G | 0
66 | A30G A94G A107G C111U A140G | 2.87
67 | A31G C38U A42G G70C A77U U100C U112C A117G | 0.77
68 | G33A A43G U62C A69G U104C | 0
69 | A31U A77G A136G | 1.68
70 | A30U U45C A140G | 1.43
71 | A30U A42U A65G | 0
72 | G33U G35A A69U U104C | 0.05

Row | Variant | self-cleavage
73 | A31G A64G C128U | 0.25
74 | A30G U85C A124C | 2.16
75 | A31G G49A U52C G60A | 0
76 | G33C A117G G127C A136G | 0.48
77 | A31U A43G U62C | 0.12
78 | A31U U81A G88A U96C U119A | 0.07
79 | G33C G53A U115A A121U U132C | 1.5
80 | A31G U39C G54U U108C A142G | 1.05
81 | A31U A78G U91C A142G | 0.45
82 | A31G A65G A78U A121U | 0
83 | G34A A94G G97C A129U A138G | 0.06
84 | A30G U46C A78G U112A | 0.42
85 | A31G A79G U102C G106A | 1.53
86 | A31G G53A A117C | 1.34
87 | G33C A92G A117U A129G | 0
88 | G33U G40A U104C | 1.09
89 | A30G U109A A141G A142U | 1.33
90 | A30G A42G U47A | 0.8
91 | G33A A42G A50G | 2.22
92 | G32A A50G A65G A79G | 0
93 | A30G U39C A59G | 0.36
94 | A30U U85A U102C G127A | 0.04
95 | A31C A57G A140G | 1.84
96 | A30G A59U U100C | 0.8

Row | Variant | self-cleavage
97 | G33U G35U A64G A124G | 0.07
98 | G32U A77U U85A U119A | 0.04
99 | G33U A64G A69U A77U A129U | 0.05
100 | G33A A77U U96A A142G U143C | 0.08
101 | A30G G36A A67G | 0.63
102 | A31U U87A U108C | 0.18
103 | A30U C51U A77G | 1.31
104 | A31U A77G C99U A138G | 1.58
105 | A30G U46C U100C A141G | 1.23
106 | G32U U45C U62A A67G U115C U132C | 0
107 | A31U U104A U134A | 1.11
108 | A31U A50G U100C A141G | 1.86
109 | A31U G48A A59G C76U U115C U130C | 0.17
110 | A30G U47C A107G C128U | 1.62
111 | A31U A65G A69G | 0.21
112 | A30G A57G A117C | 0.89
113 | A31U A43G U47G | 1.2
114 | G33A G125A U143C | 1.37
115 | A31G C90U A129G A140G U143C | 0.02
116 | A31G U81C A121U | 0.95
117 | A30G U47C U85C | 0.84
118 | A31U U52C A142G | 1.62
119 | A31U A64G A79G A141G | 0.12
120 | G32A U47C U100C A138U A141G | 0.51

Row | Variant | self-cleavage
121 | A30G U100C A138G | 2.51
122 | G33A C37A U91G A124U | 0.02
123 | A31U A67U C98U U115A | 0.06
124 | A30G A31U C90U | 0.08
125 | G32A U47A C84U A117G A136G | 0.1
126 | A30G G32A U46C U62C U109A | 0.24
127 | A31G A140G U143C | 2.16
128 | A31G A65U A129G A140G | 0.25
129 | A31C A64U U85A | 0.12
130 | A31G U119C A129G A138G | 1.38
131 | A30G U62A G127A | 0.08
132 | A31G A42U G93U U143A | 0.09
133 | G32A U39A U52C U100C U109C | 1.15
134 | G32A A59G A141G | 0
135 | A30G A31G C76U U96C | 0.14
136 | G32U A65U A79U | 0.23
137 | A31U G34A A57U A77U A79G A124G A141G | 0.02
138 | A31U A67G U134C A142G | 1.53
139 | A31U C38U U45C A50G G58A A67U U73A | 0.11
140 | A30U A31U U47A G53C A78G U115G A140G | 0
141 | G32A U102A U119A G127A U130A | 0.99
142 | A30G U62C A69G A129G | 0
143 | G32A A94G A142G | 0.33
144 | A30G U47C A64U U96A | 0.15

Row | Variant | self-cleavage
145 | A30U A31G A79G U96A A121G | 0
146 | A30G A94G A136G | 1.08
147 | G33U U45A A64U | 0.43
148 | A31U C71A U112C A138U | 0.2
149 | G32A U47A A78U | 2.05
150 | G32A A42G U73C A142C | 1.2
151 | A30G A69G U108C | 0
152 | A31G G32C G55A G86U U102C A140U | 0.07
153 | A31G A50G C76U U104C | 1.45
154 | A31U U73A A92G | 0.22
155 | A31U U96G U104A A129U U132A | 0.05
156 | G34A A124U A141G | 1.44
157 | G33U U85G U143C | 0
158 | G33U G34U U96C U100C U104C | 0
159 | A30G G36A U39G | 0
160 | A31U A42U A77G A78U | 1.79
161 | A31G A138G A140G | 0.64
162 | A30G U104A A124U | 1.41
163 | A31G A42U A140G | 1.2
164 | A30G A57U A138G | 0.16
165 | G32C A42U G72A U85C | 0.06
166 | A31U U46C U119A | 1.26
167 | A31U C37A C68U U73C G88A A142G C146A | 0.03
